Publication PMC12136788
The list shows a part of the results.

B1: chr3:148802587:148802588:-_ENSG00000071794_ENST00000310053|hu_mus|hu_hu_hu_mus_False|58_98 (ssRNA)
RNA: GGGAGUUCUACAGUCCGACGAUCUCCAACAACUUGUCCUCUCAAACUUCCAAAUAAAACCAAAUCUUGCUCUUCAUCACUAGUUAGGAAGUCAUCUGGAGGAAUAAUGUCUUGGAAUUCAAAAUGUGGCAAGAAAGUUGAGUACAACAGAGGAUUGAGCAUCA
B2: 107904762_107904882_6197_3pUTR_ENSMUSG00000034636_ENSMUST00000043616|mouse|control|control (ssRNA)
RNA: GGGAGUUCUACAGUCCGACGAUCACACAGUGAGCUUGAGACCAGCUUGGGCUACAAAAGAGCCUGUCUCACAGAACAAAGUCAAACAACCAAAAACUGAGCCAAAUUUACUGUUCCUUAAUUUAUCCCAAUUUGGCACAUUAACAACAGAGGAUUGAGCAUCA
B3: chr2:109737439:109737440:+_ENSMUSG00000027162_ENSMUST00000028583|mus_mus|FALSE|FALSE (ssRNA)
RNA: GGGAGUUCUACAGUCCGACGAUCCAUUUUCUCAAAGCGGGACUCCAUUUCUUCCAAGACUUUUGGUGUGUACCGUACGACUAAUUUAACCUUCCCUUGGGCUGCUUUCAGUAGCUCUACCGCUUUCUCAUGGUGCUCCCCUUCCAACAGAGGAUUGAGCAUCA
B4: chr3:39121231:39121232:+_ENSG00000114742_ENST00000302313|hu_hu|FALSE|FALSE (ssRNA)
RNA: GGGAGUUCUACAGUCCGACGAUCAUUGGUAUCUUUGGUUAAUAUAUGUCUCUUAUCAUUAAGAAUGUGGCACUGAAUAAUACUAGCACCCCCUUUAAUAACCUGGUCAGGUUGUGUACAAAGAGGUGUUAUAGGAUUUGUACACAACAGAGGAUUGAGCAUCA
B5: chr8:95500983:95500984:-_ENSG00000164944_ENST00000437199|hu_hu|hu_hu_hu_mus_True|98_108 (ssRNA)
RNA: GGGAGUUCUACAGUCCGACGAUCAGAAGGAUUUUUAUCGUGUAAAGACCGUACAUGACGGCCUCUACCACUGCCUCCACUAACAAACUUUCCUCUCGAGCCUCCACUGCCGCUAUUUGUACUAGCCCAGGACGGUCCCAGGCCCAACAGAGGAUUGAGCAUCA
B6: chr1:26449037:26449038:+_ENSG00000175087_ENST00000374271|hu_mus|motif|central (ssRNA)
RNA: GGGAGUUCUACAGUCCGACGAUCAUGCUUGCAAGCAGUAGGUCACGUCUCCCAGCUGCUGUCUUUAAAUGCAAUUUGGACGGAUCUGAGUUCUAGUUCAAAAGCAUCAGGGCGAUCCUGAGGGUUUGCGGCCAGCAUUUCCUUCAACAGAGGAUUGAGCAUCA
B7: chr2:232320318:232320319:-_ENSG00000115053_ENST00000322723|hu_hu|hu_hu_hu_mus_True|28_48 (ssRNA)
RNA: GGGAGUUCUACAGUCCGACGAUCACUAUUAAAGUCUACAAAACCAAACCCUUUGGAAGAACCAGUUUCCCGAUCAGUGACUAUUCUUGCCCGAACGGAGCCCUCAAAUGACUCCUUUAAGGUCUCUUCAGUGGUAUCCUCAGACAACAGAGGAUUGAGCAUCA
B8: chr3:55303971:55303972:+_ENSMUSG00000027797_ENSMUST00000054237|mus_hu|FALSE|FALSE (ssRNA)
RNA: GGGAGUUCUACAGUCCGACGAUCGCCGUCUACAAUGGUGGCCAGUCCAAAGUCACCCAGCUUCAGUGAUUUGCUGCCAUCUUGGUGCUCAUACACCAGCAGGUUCUCUGGCUUGAUAUCACGGUGGACGAUGUUCAGGCUAUGCAACAGAGGAUUGAGCAUCA
B9: chr9:101992667:101992668:+_ENSG00000106803_ENST00000223641|hu_hu|FALSE|FALSE (ssRNA)
RNA: GGGAGUUCUACAGUCCGACGAUCAGAUGGAUGUAACUGAAUCUACGAACGAGUGUACUUGCCCCAAAUGUGCAACAUAAAUACAGAAGCGAUGAACAGAAGACUCAUAACCAAUACUGGAACAGGGCCAACUUUGAGCCCAGGCAACAGAGGAUUGAGCAUCA
B10: chr1:63355414:63355415:+_ENSMUSG00000027520_ENSMUST00000029025|mus_hu|motif|central (ssRNA)
RNA: GGGAGUUCUACAGUCCGACGAUCUGUCACCCUCUUUCCAUGAAUUUUCUUUUUACUUUGACUUUCCAAAAGCUUAUUUCGGACUGAUUUUGGAGAGAUUUUGACAACAUCAUGAUUUAAAAAUGUUAGCUGGAAAUUUCUUUUCAACAGAGGAUUGAGCAUCA
B11: chr3:57569730:57569731:-_ENSG00000168374_ENST00000303436|hu_hu|motif|central (ssRNA)
RNA: GGGAGUUCUACAGUCCGACGAUCAUAUUCUACUGUUUCCACAUUAAAACCAAUGGUAGGAAUGGUGGUGACUAUCUCCCCGGACUUCAGUUUAUACAGAAUGGUUGUCUUGCCAGCAGCAUCCAAUCCAACCAUCAAAAUGCGCAACAGAGGAUUGAGCAUCA
B12: chr6:51416999:51417000:-_ENSMUSG00000004980_ENSMUST00000090002|mus_hu|FALSE|FALSE (ssRNA)
RNA: GGGAGUUCUACAGUCCGACGAUCAUCAAUUGAAUGAGGUCUUGCAGCCAUGGCAGCAUCAACCUCAGCCAUGGAUGAAAAAGUUACAAAACCAAAUCCUCUUGAUCUUUUGCUUGCAGGAUCCCUCAUUACCACACAGUCUGUCAACAGAGGAUUGAGCAUCA
B13: 156688934_156689054_131_5pUTR_ENSMUSG00000027637_ENSMUST00000029165|mouse|control|control (ssRNA)
RNA: GGGAGUUCUACAGUCCGACGAUCCCGCCCGCCGCUCAUCCUCCCGUCGCGCCGCCCGAGCCGGGCGUGGGGCGCGCGGGCCAAGCCGAAGGGAGUCGGGGUCUGGGACCGCGGGACUCGGCGCGCGGGGCGGCAGCGGUAGUCCAACAGAGGAUUGAGCAUCA
B14: 111894903_111895023_5806_3pUTR_ENSG00000260230_ENST00000561981|human|control|control (ssRNA)
RNA: GGGAGUUCUACAGUCCGACGAUCGUCCCUAUCUAAGAACAAGGGUGGGAAAGCCACAGUCCAUAAGCAAACCCCGCCUGCUUCCUGUUUUUGUGCAGCCUGCAAGCUAAGAAUGGUCUUUGGAUUUUUUUAAUGGCUUUCUGACAACAGAGGAUUGAGCAUCA
B15: chr2:9628331:9628332:+_ENSG00000134330_ENST00000482918|hu_hu|FALSE|FALSE (ssRNA)
RNA: GGGAGUUCUACAGUCCGACGAUCUUCUGCUACAUCCCGCCAGUAAGGAAGCAGCAAAGGUAGAGAAGAGACCUUUUUCUCUAUCAAAGGCCAGAGAUGCGAGAACAAAAAUUCAUUCCCCUUUGGAGACAAAUGUAGUCCAUCCAACAGAGGAUUGAGCAUCA
B16: 121704050_121704170_680_5pUTR_ENSMUSG00000042744_ENSMUST00000119892|mouse|control|control (ssRNA)
RNA: GGGAGUUCUACAGUCCGACGAUCUUCUACUCUGGGACUGAAUAAGGGGGAAGACCAACAGGAGGCCCACCCGGGACGUGAAGGGGGCUUGUUCAGGCUGCUGCAACAAGCCCUGGCGCUUGAGCAGGGCCAAGGUCUCUUCGUCAACAGAGGAUUGAGCAUCA
B17: chr5:145543945:145543946:-_ENSG00000133706_ENST00000545646|hu_hu|hu_hu_hu_mus_True|18_58 (ssRNA)
RNA: GGGAGUUCUACAGUCCGACGAUCCUGAACGGCCAGUGGUGGGAAAUAAUCAAGCCAGUGCUCUGCUUCAGAAAACUUUACUAUCUCGUCAUCAGAGAGCCCAAGGGAUUUCAUAAUGCCCCACUGGUACUUAGAAGAUCCUGCCAACAGAGGAUUGAGCAUCA
B18: chr7:65705844:65705845:+_ENSG00000169902_ENST00000304842|hu_mus|hu_hu_hu_mus_False|8_18 (ssRNA)
RNA: GGGAGUUCUACAGUCCGACGAUCAAACGGAUCUUUGUUACAUAAAUAAGGUGCCGGCUCCCCAUGUUUAACAAUGACCUCCAGAAGGAAGGCUUGCAUGGCAGAAUCUAGCACUUCAUCAGUAACACCAGCCUCAUCCAAGCGCAACAGAGGAUUGAGCAUCA
B19: chr11:98549071:98549072:+_ENSMUSG00000017221_ENSMUST00000017365|mus_hu|motif|central (ssRNA)
RNA: GGGAGUUCUACAGUCCGACGAUCAUCCAGCUUGUCCAGGAACUCAUAGACCCGGGCGUGAUAAUAGUAACACUUUGCGGCGGCAAGGUCUAGGGCCCGGCGGUUCUGAGUACUGAUCUUCUGCAUCAGAUCAUCAGAGAUCUUCAACAGAGGAUUGAGCAUCA
B20: chr1:60041781:60041782:+_ENSMUSG00000041040_ENSMUST00000036540|mus_hu|mus_mus_mus_hu_False|98_98 (ssRNA)
RNA: GGGAGUUCUACAGUCCGACGAUCAAGUUUACAAUAGCUCAACUUUAGCAGUAGUGGCAAAUUUUCUUUUAUUUUCCUUCACAAAAGAAAAUCUUUAUAACCCAGUCCUAGUCUUGGACAUAGUGAAAGCUAUAAAUUCUGACUCAACAGAGGAUUGAGCAUCA
B21: 16805037_16807016_525_CDS_ENSMUSG00000024304_ENSMUST00000115850|mouse|control|control (ssRNA)
RNA: GGGAGUUCUACAGUCCGACGAUCGAUGGGGUUGAUAAUGAAGAUGCCCGUUGGAGGCUGGUCAGCUCCUGGCCCAGUGACGCUGUAUCUCAGGGAAAGGUUUUUAUCUCUAUCAGACCUGAUUCUGACAAGCUCUUGAGGAAACAACAGAGGAUUGAGCAUCA
B22: chrX:45232703:45232704:-_ENSMUSG00000031099_ENSMUST00000088973|mus_mus|motif|central (ssRNA)
RNA: GGGAGUUCUACAGUCCGACGAUCAGAUGGAACCCAUCGUUUAAAUUCAUUCAUCCAGUUAUGUAAAGUAGACUUGGGAACGGAAACCAUGUGGGGUCCAGGAAUGUUUCUGUAGUGCUUCAGGUAACCAAGCAAGGCAAUGGUCAACAGAGGAUUGAGCAUCA

These binders were tested against T1, UNK ZnF1-3 (human, UniProt Q9C0B0 31-174) (assay: nsRBNS (natural sequence RNA bind-n-seq); RBNS binding buffer (assumed for nsRBNS): 25 mM Tris pH 7.5, 150 mM KCl, 3 mM MgCl2, 0.01% Triton X-100, 500 ug/ml BSA, 20 U/ml SUPERase-In, 4 C; UNK is unkempt and MSI1 is Musashi-1; names of the RNAs are library labels; protein concentration not given here; high values mean tight binding).
T1 sequence: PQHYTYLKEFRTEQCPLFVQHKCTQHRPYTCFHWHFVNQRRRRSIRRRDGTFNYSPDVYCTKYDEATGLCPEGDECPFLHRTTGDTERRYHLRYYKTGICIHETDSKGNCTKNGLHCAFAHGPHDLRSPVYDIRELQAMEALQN

Compared with B1, B2 is lower in binding signal: 1.03 enrichment R for the first, 1.01 enrichment R for the second.

Going from B3 to B4, the binding signal falls from 0.63 enrichment R to 0.37 enrichment R.

First: B5
Second: B6
The binding signal of the first is higher: 0.979 enrichment R for the first, 0.722 enrichment R for the second.

Going from B7 to B8, the binding signal rises from 0.43 enrichment R to 0.754 enrichment R.

First: B9
Second: B10
The binding signal of the first is higher: 1.27 enrichment R for the first, 0.649 enrichment R for the second.

Going from B11 to B12, the binding signal rises from 1 enrichment R to 1.09 enrichment R.

Going from B13 to B14, the binding signal rises from 0.499 enrichment R to 0.652 enrichment R.

Going from B15 to B16, the binding signal falls from 1.34 enrichment R to 0.727 enrichment R.

First: B17
Second: B18
The binding signal of the first is higher: 1.01 enrichment R for the first, 0.41 enrichment R for the second.

Compared with B19, B20 is lower in binding signal: 0.697 enrichment R for the first, 0.503 enrichment R for the second.

Compared with B21, B22 is higher in binding signal: 1.07 enrichment R for the first, 1.15 enrichment R for the second.
